From publication PMC4336329 (PLoS ONE, 2015)
In all, about 310,000 compounds went through this assay and about 14,000 (4.5%) showed an effect of 50% or more. The effect is printed as a negative number. The list shows a part of the results.

Target: human ether-à-go-go-related gene (hERG) potassium channel (human, UniProt Q12809)
Assay: primary screen, population patch clamp on CHO cells stably expressing hERG
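Further: peak tail current of the secondary pulse compared with the same well before compound.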

human ether-à-go-go-related gene (hERG) potassium channel, sequence (Q12809 whole entry, looked up): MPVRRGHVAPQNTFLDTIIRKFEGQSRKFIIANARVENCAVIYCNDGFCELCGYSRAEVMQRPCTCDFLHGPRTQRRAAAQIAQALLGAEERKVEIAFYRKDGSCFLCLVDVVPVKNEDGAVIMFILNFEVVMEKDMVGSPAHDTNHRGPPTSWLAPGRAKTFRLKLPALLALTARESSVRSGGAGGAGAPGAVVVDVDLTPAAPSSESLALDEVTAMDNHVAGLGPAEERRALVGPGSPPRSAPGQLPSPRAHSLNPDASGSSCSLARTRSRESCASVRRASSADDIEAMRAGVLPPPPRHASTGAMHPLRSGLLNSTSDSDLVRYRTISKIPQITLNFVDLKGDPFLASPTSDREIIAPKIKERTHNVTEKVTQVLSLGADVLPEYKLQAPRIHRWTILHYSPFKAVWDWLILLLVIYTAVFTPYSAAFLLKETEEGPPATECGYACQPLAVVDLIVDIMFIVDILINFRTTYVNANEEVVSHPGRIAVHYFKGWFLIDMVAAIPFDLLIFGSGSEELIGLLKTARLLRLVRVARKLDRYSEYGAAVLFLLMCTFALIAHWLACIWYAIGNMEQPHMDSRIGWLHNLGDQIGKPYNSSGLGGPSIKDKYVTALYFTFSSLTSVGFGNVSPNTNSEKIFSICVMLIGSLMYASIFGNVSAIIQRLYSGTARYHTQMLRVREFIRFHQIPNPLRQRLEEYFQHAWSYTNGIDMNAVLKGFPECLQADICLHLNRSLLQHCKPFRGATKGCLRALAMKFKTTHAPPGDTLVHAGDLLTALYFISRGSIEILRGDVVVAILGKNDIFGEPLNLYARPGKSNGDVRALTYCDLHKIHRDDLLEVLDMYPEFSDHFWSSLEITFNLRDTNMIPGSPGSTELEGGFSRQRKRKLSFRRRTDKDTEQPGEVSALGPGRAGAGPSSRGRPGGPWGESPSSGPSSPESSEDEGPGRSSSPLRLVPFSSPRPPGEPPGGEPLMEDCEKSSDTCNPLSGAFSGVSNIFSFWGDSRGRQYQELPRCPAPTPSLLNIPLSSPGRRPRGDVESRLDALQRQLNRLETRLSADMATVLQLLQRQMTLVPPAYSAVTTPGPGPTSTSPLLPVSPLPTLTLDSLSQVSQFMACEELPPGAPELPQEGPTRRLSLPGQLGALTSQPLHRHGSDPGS

| SMILES | hERG current change (%, negative = inhibition) at 10uM |
| --- | --- |
| CN(C)c1ccc(NC(=O)CSc2nc3c(c(=O)[nH]2)CCCC3)cc1 | -20.7% |
| CCc1ccc(Nc2c([N+](=O)[O-])c(=O)oc3ccccc23)cc1 | -2.5% |
| Cc1ccc(CSc2ncccc2C(=O)O)cc1 | 4.94% |
| CC(=O)Nc1cccc(NS(=O)(=O)c2cc3c4c(c2)CCN4C(=O)CC3)c1 | 4.78% |
| COCCNC(=O)/C(C#N)=C/c1cn(CC(=O)NCc2ccco2)c2ccccc12 | 3.53% |
| COc1cccc(CN2CC(C(=O)NCc3ncc(C)[nH]3)CCC2=O)c1 (centres unmarked) | 23.3% |
| Fc1cccc(CSc2nc3ncccc3[nH]2)c1 | 4.28% |
| CC(=O)NCc1ccc(C(=O)CSc2nnc(C3CC3)n2C2CC2)cc1 | 12.6% |
| Cc1ccc2oc(=O)c3cnn(CC(=O)NCCCOC(C)C)c3c2c1 | -4.52% |
| O=C(O)c1cc(-c2ccco2)[nH]n1 | 2.2% |
| COc1ccc(CNC(=O)C2CCCN(S(=O)(=O)c3c(C)n[nH]c3C)C2)cc1 (centres unmarked) | -9.61% |
| O=C(NC(Cc1ccccc1)C(=O)O)OCC1c2ccccc2-c2ccccc21 (centres unmarked) | 7.84% |
| CCOc1ccccc1-c1noc(CCCC(=O)NC2CCCCC2)n1 | -5.35% |
| CCc1c(C)nc(SCC(=O)NC2CCCC2)[nH]c1=O | 27.7% |
| COC(CNS(=O)(=O)c1ccc(Cl)cc1)c1ccccc1 (centres unmarked) | 2.11% |
| Cc1ccc(OCCn2c(=O)n(C)c3ccccc32)cc1 | -1.88% |
| CN(C)C(=O)c1cc2cc([N+](=O)[O-])ccc2s1 | -38.9% |
| CC(C)CC(=O)N1CCN(S(=O)(=O)c2ccc(Cl)cc2)CC1 | -13.4% |
| Cl.O=[N+]([O-])c1ccccc1OCCCN1CCc2ccccc2C1 | -49.7% |
| COC(=O)c1ccccc1NC(=O)CNC(=O)c1ccc(OC)cc1 | -14.7% |
| COc1ccc(/C=N/N=C2\SCC(=O)N2c2c(C)n(C)n(-c3ccccc3)c2=O)cc1OC | 35.2% |
| Cc1[nH]c(=O)[nH]c1C(=O)CCCCC(=O)OCC(=O)Nc1ccccn1 | 12.3% |

| SMILES | hERG current change (%, negative = inhibition) at 10uM |
| --- | --- |
| Cc1ccc2nc(C)cc(C(=O)Nc3nccs3)c2c1 | -1.58% |
| Cc1cc(Oc2ccccc2)nc(-c2ccccc2O)n1 | -3.03% |
| CCCCN(C(=O)Cn1nnc2ccccc21)C(C(=O)NCc1ccco1)c1ccncc1 (centres unmarked) | -11.7% |
| CCOc1ccc(NC(=O)CN2CCN(c3ccccc3C)CC2)cc1S(=O)(=O)N1CCCC1 | -11.1% |
| O=C(CNC(=O)c1ccccc1F)OCC(=O)c1ccc(Cl)s1 | 8% |
| COC(=O)C1=NN(c2ccc(C)cc2)C2(S1)SC(C(C)=O)=C(C)N2c1ccccc1 (centres unmarked) | -10% |
| COC(=O)c1ccc(NC(=O)N2CCC(O)(c3cccnc3)CC2)cc1 | 9.11% |
| CCC1CCc2c(sc3nc(SCC(=O)NCc4ccco4)n(-c4ccccc4)c(=O)c23)C1 (centres unmarked) | 11.2% |
| CCN1CCC(NC(=O)Nc2cccc(C(F)(F)F)c2)CC1 | -51.1% |
| O=C(CCn1nc(-c2ccc(Cl)cc2)ccc1=O)NCc1cccnc1 | -28.5% |
| COc1cccc(-c2nc(-c3ccncc3)no2)c1 | -27.6% |
| Cn1cnnc1SCC(=O)Nc1sc2c(c1C#N)CCCCC2 | -42% |
| O=C(Nc1cccc(C(=O)O)c1)Nc1cccc2ccccc12 | 23.3% |
| CN(C)C=Nc1nonc1N | -1.38% |
| O=CN1CCN(c2c([N+](=O)[O-])c(=O)oc3ccccc23)CC1 | -4.33% |
| CN1CCc2c(n(CC(O)CNCc3ccccc3)c3ccccc23)C1=O.Cl (centres unmarked) | -52.8% |
| Cc1ccc(S(=O)(=O)NCc2ccco2)c(C)c1C | -4.4% |
| CCC(=O)N1CCc2cc(S(=O)(=O)NCCC(=O)Nc3ccccc3C)ccc21 | 0.186% |
| CCOC(=O)c1sc2nc(C)nc(NCCc3ccccn3)c2c1C | 27.6% |
| Cc1ccc(N=CC2=C(O)CC(c3ccccc3Cl)CC2=O)cc1 (centres unmarked) | -6.91% |
| CS(=O)(=O)N(CCC#N)Cc1ccc(/C=C2\C(=O)Nc3ccccc32)o1 | 19% |
| Cc1ccc(NC(=O)CCC(=O)NNC(=O)c2cccs2)c(C)c1 | -7.48% |
